Test results published in patent US20230357152A1 (priority 2020, published 2023).

test system: Botrytis cinerea; format: cell-based

Question: Which “Fungal growth at 31 ppm (%) BOTRCI” value does the source give for `CNC(=O)/C(=N/OC)c1cccc(C)c1CO/N=C(\C)c1cccc(OC)n1` [Example 3] here?
Answer: 8%

Question: Which “Fungal growth at 31 ppm (%) BOTRCI” value does the source give for `CO/N=C(/C(=O)OC)c1cccc(C)c1CO/N=C(\C)c1cccc(C(F)(F)F)n1` [Example 1] here?
Answer: 20%

test system: Septoria tritici; format: cell-based

Question: For `CO/N=C(/C(=O)OC)c1cccc(C)c1CO/N=C(\C)c1cccc(OC)n1` [Example 6], which “Fungal growth at 31 ppm (%) SEPTTR” value is on record?
Answer: 7%

Question: Which “Fungal growth at 31 ppm (%) SEPTTR” value does the source give for `CO/N=C(/C(=O)OC)c1cccc(C)c1CO/N=C(\C)c1ncccc1C(F)(F)F` [Example 27, Methyl (2E)-2-methoxyimino-2-[3-methyl-2-[[(E)-1-[3-(trifluoromethyl)-2-pyridyl]-ethylideneamino]oxymethyl]phenyl]acetate] here?
Answer: 5%

Question: With `CNC(=O)/C(=N/OC)c1cccc(C)c1CO/N=C(\C)c1cc(C#N)ccn1` [Example 55] as the compound, how does the “Fungal growth at 31 ppm (%) SEPTTR” value read?
Answer: 8%

Question: How did the “Fungal growth at 31 ppm (%) SEPTTR” value turn out when `CO/N=C(/C(=O)OC)c1cccc(C)c1CO/N=C(\C)c1cnc(Cl)c(Cl)c1` [Example 87] was run?
Answer: 1%

Question: With `CNC(=O)/C(=N/OC)c1cccc(C)c1CO/N=C(\C)c1ncccc1C(F)F` [Example 33] as the compound, how does the “Fungal growth at 31 ppm (%) SEPTTR” value read?
Answer: 4%

Question: How did the “Fungal growth at 31 ppm (%) SEPTTR” value turn out when `CO/N=C(/C(=O)OC)c1cccc(C)c1CO/N=C(\C)c1cc(C)ccn1` [Example 25] was run?
Answer: 0%

Question: How did the “Fungal growth at 31 ppm (%) SEPTTR” value turn out when `CO/N=C(/C(=O)OC)c1cccc(C)c1CO/N=C(\C)c1cccc(C)n1` [Example 65] was run?
Answer: 0%

Question: For `CO/N=C(/C(=O)OC)c1cccc(C)c1CO/N=C(/c1cc(C(F)(F)F)ccn1)C1CC1` [Example 72, Methyl (2E)-2-[2-[[(E)-[cyclopropyl-[4-(trifluoromethyl)-2-pyridyl]methylene]amino]-oxymethyl]-3-methyl-phenyl]-2-methoxyimino-acetate], which “Fungal growth at 31 ppm (%) SEPTTR” value is on record?
Answer: 4%

Question: How did the “Fungal growth at 31 ppm (%) SEPTTR” value turn out when `CO/N=C(/C(=O)OC)c1cccc(C)c1CO/N=C(\C)c1cc(C(F)(F)F)cc(C)n1` [Example 46] was run?
Answer: 0%

Question: For `CO/N=C(/C(=O)OC)c1cccc(C)c1CO/N=C(\C)c1cc(C#N)ccn1` [Example 54], which “Fungal growth at 31 ppm (%) SEPTTR” value is on record?
Answer: 4%

Question: `CO/N=C(/C(=O)OC)c1cccc(C)c1CO/N=C(\C)c1ccnc(SC)c1` [Example 94] was tested. Which “Fungal growth at 31 ppm (%) SEPTTR” value did it give?
Answer: 1%

Question: `CNC(=O)/C(=N/OC)c1cccc(C)c1CO/N=C(/c1cc(C(F)(F)F)ccn1)C1CC1` [Example 70, (2E)-2-[2-[[(E)-[cyclopropyl-[4-(trifluoromethyl)-2-pyridyl]methylene]amino]oxymethyl]-3-methyl-phenyl]-2-methoxyimino-N-methyl-acetamide] was tested. Which “Fungal growth at 31 ppm (%) SEPTTR” value did it give?
Answer: 0%

Question: `CNC(=O)/C(=N/OC)c1cccc(C)c1CO/N=C(\C)c1cccc(C(F)F)n1` [Example 10] was tested. Which “Fungal growth at 31 ppm (%) SEPTTR” value did it give?
Answer: 2%

Question: For `CNC(=O)/C(=N/OC)c1cccc(C)c1CO/N=C(\C)c1ncsc1C(F)(F)F` [Example 41], which “Fungal growth at 31 ppm (%) SEPTTR” value is on record?
Answer: 2%

Question: Which “Fungal growth at 31 ppm (%) SEPTTR” value does the source give for `CO/N=C(/C(=O)OC)c1cccc(C)c1CO/N=C(\C)c1ncccc1C(F)F` [Example 24] here?
Answer: 0%

Question: For `CO/N=C(/C(=O)OC)c1cccc(C)c1CO/N=C(\C)c1cc(-c2ccc(F)cc2)sn1` [Example 11, Methyl (2E)-2-[2-[[(E)-1-[5-(4-fluorophenyl)isothiazol-3-yl]ethylideneamino]oxy-methyl]-3-methyl-phenyl]-2-methoxyimino-acetate], which “Fungal growth at 31 ppm (%) SEPTTR” value is on record?
Answer: 10%

Question: For `CNC(=O)/C(=N/OC)c1cccc(C)c1CO/N=C(\C)c1cc(/C(C)=N/OC)ccn1` [Example 30, (2E)-2-Methoxyimino-2-[2-[[(E)-1-[4-[(E)-N-methoxy-C-methyl-carbonimidoyl]-2-pyridyl]ethylideneamino]oxymethyl]-3-methyl-phenyl]-N-methyl-acetamide], which “Fungal growth at 31 ppm (%) SEPTTR” value is on record?
Answer: 2%

Question: For `CO/N=C(/C(=O)OC)c1cccc(C)c1CO/N=C(\C)c1ccnc(C(F)(F)F)c1` [Example 47], which “Fungal growth at 31 ppm (%) SEPTTR” value is on record?
Answer: 0%

Question: `CNC(=O)/C(=N/OC)c1cccc(C)c1CO/N=C(\C)c1cnc(Cl)c(Cl)c1` [Example 88] was tested. Which “Fungal growth at 31 ppm (%) SEPTTR” value did it give?
Answer: 9%

Question: How did the “Fungal growth at 31 ppm (%) SEPTTR” value turn out when `CO/N=C(/C(=O)OC)c1cccc(C)c1CO/N=C(\C)c1cccc(C(F)F)n1` [Example 9] was run?
Answer: 4%

Question: For `CO/N=C(/C(=O)OC)c1cccc(C)c1CO/N=C(\C)c1cc(C(F)F)ccn1` [Example 34], which “Fungal growth at 31 ppm (%) SEPTTR” value is on record?
Answer: 0%

Question: How did the “Fungal growth at 31 ppm (%) SEPTTR” value turn out when `CO/N=C(\C)c1ccnc(/C(C)=N/OCc2c(C)cccc2/C(=N\OC)C(=O)OC)c1` [Example 29, Methyl (2E)-2-methoxyimino-2-[2-[[(E)-1-[4-[(E)-N-methoxy-C-methyl-carbonimidoyl]-2-pyridyl]ethylideneamino]oxymethyl]-3-methyl-phenyl]acetate] was run?
Answer: 0%

Question: `CNC(=O)/C(=N/OC)c1cccc(C)c1CO/N=C(\C)c1cc(C(F)F)ccn1` [Example 37] was tested. Which “Fungal growth at 31 ppm (%) SEPTTR” value did it give?
Answer: 3%

Question: How did the “Fungal growth at 31 ppm (%) SEPTTR” value turn out when `CO/N=C(/C(=O)OC)c1cccc(C)c1CO/N=C(\C)c1cncc(C(F)(F)F)c1` [Example 84, Methyl (2E)-2-methoxyimino-2-[3-methyl-2-[[(E)-1-[5-(trifluoromethyl)-3-pyridyl]ethyl-ideneamino]oxymethyl]phenyl]acetate] was run?
Answer: 1%

test system: Fusarium culmorum; format: cell-based

Question: Which “Fungal growth at 31 ppm (%) FUSACU” value does the source give for `CO/N=C(/C(=O)OC)c1cccc(C)c1CO/N=C(\C)c1cc(-c2ccc(F)cc2)on1` [Example 14] here?
Answer: 20%

Question: How did the “Fungal growth at 31 ppm (%) FUSACU” value turn out when `CNC(=O)/C(=N/OC)c1cccc(C)c1CO/N=C(\C)c1cc(-c2ccc(F)cc2)on1` [Example 15] was run?
Answer: 20%

Question: Which “Fungal growth at 31 ppm (%) FUSACU” value does the source give for `CNC(=O)/C(=N/OC)c1cccc(C)c1CO/N=C(\C)c1cc(C(F)(F)F)ccn1` [Example 5, (2E)-2-methoxyimino-N-methyl-2-[3-methyl-2-[[(E)-1-[4-(trifluoromethyl)-2-pyridyl]-ethylideneamino]oxymethyl]phenyl]acetamide] here?
Answer: 8%

Question: Which “Fungal growth at 31 ppm (%) FUSACU” value does the source give for `CO/N=C(/C(=O)OC)c1cccc(C)c1CO/N=C(\C)c1cc(C(F)(F)F)cc(C)n1` [Example 46] here?
Answer: 1%

Question: For `CNC(=O)/C(=N/OC)c1cccc(C)c1CO/N=C(\C)c1cccc(C(F)F)n1` [Example 10], which “Fungal growth at 31 ppm (%) FUSACU” value is on record?
Answer: 9%

Question: For `CNC(=O)/C(=N/OC)c1cccc(C)c1CO/N=C(\C)c1ncsc1C(F)(F)F` [Example 41], which “Fungal growth at 31 ppm (%) FUSACU” value is on record?
Answer: 9%

Question: With `CNC(=O)/C(=N/OC)c1cccc(C)c1CO/N=C(\C)c1cc(/C(C)=N/OC)ccn1` [Example 30, (2E)-2-Methoxyimino-2-[2-[[(E)-1-[4-[(E)-N-methoxy-C-methyl-carbonimidoyl]-2-pyridyl]ethylideneamino]oxymethyl]-3-methyl-phenyl]-N-methyl-acetamide] as the compound, how does the “Fungal growth at 31 ppm (%) FUSACU” value read?
Answer: 10%

Question: Which “Fungal growth at 31 ppm (%) FUSACU” value does the source give for `CO/N=C(/C(=O)OC)c1cccc(C)c1CO/N=C(\C)c1cc(C(F)(F)F)cc(Cl)n1` [Example 42] here?
Answer: 10%

Question: How did the “Fungal growth at 31 ppm (%) FUSACU” value turn out when `CNC(=O)/C(=N/OC)c1cccc(C)c1CO/N=C(\C)c1cc(-c2ccccc2)on1` [Example 23] was run?
Answer: 5%

Question: Which “Fungal growth at 31 ppm (%) FUSACU” value does the source give for `CO/N=C(/C(=O)OC)c1cccc(C)c1CO/N=C(\C)c1ccnc(C(F)(F)F)c1` [Example 47] here?
Answer: 8%

Question: How did the “Fungal growth at 31 ppm (%) FUSACU” value turn out when `CNC(=O)/C(=N/OC)c1cccc(C)c1CO/N=C(\C)c1cccc(C)n1` [Example 81] was run?
Answer: 9%

Question: Which “Fungal growth at 31 ppm (%) FUSACU” value does the source give for `CO/N=C(/C(=O)OC)c1cccc(C)c1CO/N=C(\C)c1cc(C(F)(F)F)ccn1` [Example 4, Methyl (2E)-2-methoxyimino-2-[3-methyl-2-[[(E)-1-[4-(trifluoromethyl)-2-pyridyl]ethylideneamino]oxymethyl]phenyl]acetate] here?
Answer: 10%

Question: With `CO/N=C(/C(=O)OC)c1cccc(C)c1CO/N=C(\C)c1cc(C(F)F)ccn1` [Example 34] as the compound, how does the “Fungal growth at 31 ppm (%) FUSACU” value read?
Answer: 10%

Question: `CNC(=O)/C(=N/OC)c1cccc(C)c1CO/N=C(\C)c1cccc(C(F)(F)F)n1` [Example 2] was tested. Which “Fungal growth at 31 ppm (%) FUSACU” value did it give?
Answer: 7%
